Our source for the cytotoxicity call and growth inhibition call values is the antibiotic and cytotoxicity screens of Wong et al. (2023).

This is one part of the list.

One assay relates to HSkMC. As to the kind of experiment: cytotoxicity call (relative viability < 0.9). Conditions: 10 µM.
A further assay relates to HepG2. As to the kind of experiment: cytotoxicity call (relative viability < 0.9). Conditions: 10 µM.
A further assay relates to S. aureus RN4220. As to the kind of experiment: growth inhibition call (relative growth <= 0.2). Conditions: 50 µM.

On to `C[C@@H]1CN([C@H](C)CO)C(=O)c2cc(C3=CCCCC3)cnc2O[C@H]1CN(C)S(=O)(=O)c1cn(C)cn1`, for which the cytotoxicity call in the assay with HSkMC and in the assay with HepG2 was “inactive” each time. Further, in the assay on S. aureus RN4220, the growth inhibition call was “inactive”.

As to `CN(C)C(=O)C[C@H]1C=C[C@@H](NC(=O)C2CCOCC2)[C@H](CO)O1`, the cytotoxicity call in the assay with HSkMC and with HepG2 was “inactive” in each case. The growth inhibition call in the assay with S. aureus RN4220 is “inactive”.

Take `C[C@@H]1CCCCO[C@@H](CN(C)C(=O)c2ccccc2)[C@@H](C)CN([C@@H](C)CO)C(=O)c2cc(NC(=O)Nc3ccc4c(c3)OCO4)ccc2O1`: the cytotoxicity call in the assay with HSkMC and with HepG2 was “inactive” throughout. In the assay on S. aureus RN4220, the growth inhibition call is “inactive”.

Turning to `C[C@@H]1CN([C@H](C)CO)C(=O)c2cccc(NC(=O)Nc3ccc(F)cc3)c2O[C@H]1CN(C)C(=O)Nc1cccc2ccccc12`, the cytotoxicity call in the assay on HSkMC and with HepG2 was “inactive” each time. Further, the growth inhibition call with S. aureus RN4220 is “inactive”.

In the case of `COc1ccc(NC(=O)N(C)C[C@@H]2Oc3ccc(NC(=O)Nc4ccc(C(F)(F)F)cc4)cc3CC(=O)N([C@@H](C)CO)C[C@H]2C)cc1`, the cytotoxicity call in the assay on HSkMC and in the assay on HepG2 was “inactive” throughout. For the same compound, in the assay on S. aureus RN4220, the growth inhibition call is “inactive”.

As for `CC(C)CC#Cc1ccc2c(c1)O[C@@H](CN(C)C(=O)Cc1ccccn1)[C@@H](C)CN([C@@H](C)CO)S2(=O)=O`, the cytotoxicity call in the assay with HSkMC and in the assay on HepG2 was “inactive” throughout. The growth inhibition call with S. aureus RN4220 was “inactive”.

Regarding `C[C@@H]1CN([C@@H](C)CO)C(=O)c2cc(C#Cc3cccnc3)cnc2O[C@H]1CN(C)S(=O)(=O)c1ccccc1F`, the cytotoxicity call in the assay on HSkMC and with HepG2 was “inactive” each time. For the same compound, the growth inhibition call in the assay with S. aureus RN4220 was “inactive”.

Take `Cc1ccccc1OCC(O)CO` (centres undefined): in the assay on HSkMC, the cytotoxicity call is “inactive”. Also, in the assay with HepG2, the cytotoxicity call was “active”. Further, in the assay with S. aureus RN4220, the growth inhibition call is “inactive”.

Regarding `COc1ccc(S(=O)(=O)Nc2ccc3c(c2)[C@@H]2C[C@@H](CC(=O)NCC4CC4)O[C@@H](CO)[C@@H]2O3)cc1`, the cytotoxicity call with HSkMC and in the assay with HepG2 was “inactive” each time. Also, in the assay on S. aureus RN4220, the growth inhibition call is “inactive”.

In the case of `C[C@H](CO)N1C[C@H](C)[C@H](CN(C)C(=O)Nc2ccc(F)cc2)Oc2ncc(C#Cc3ccc(C(F)(F)F)cc3)cc2C1=O`, the cytotoxicity call in the assay with HSkMC and with HepG2 was “inactive” in each case. The growth inhibition call with S. aureus RN4220 is “inactive”.

Turning to `CCCCNc1ccc(C(=O)OCCN(C)C)cc1.Cl`, the cytotoxicity call in the assay with HSkMC is “inactive”. Besides, the cytotoxicity call in the assay with HepG2 was “active”. In addition, the growth inhibition call with S. aureus RN4220 is “inactive”.

In the case of `COc1cccc(S(=O)(=O)N2C[C@H](O)COC[C@H]3O[C@@H](CC(=O)N4CCN(C)CC4)CC[C@@H]32)c1`, the cytotoxicity call with HSkMC and in the assay on HepG2 was “inactive” throughout. Besides, in the assay with S. aureus RN4220, the growth inhibition call is “inactive”.

Regarding `CC(C)NC(=O)N(C)C[C@H]1Oc2cc(C#Cc3ccc(F)cc3)ccc2S(=O)(=O)N([C@@H](C)CO)C[C@H]1C`, the cytotoxicity call with HSkMC and in the assay with HepG2 was “inactive” in each case. Further, the growth inhibition call in the assay on S. aureus RN4220 was “inactive”.

With `COc1ccc(CN(C)C[C@@H]2OCCCC[C@H](C)Oc3ccc(NC(=O)c4ccccc4)cc3C(=O)N([C@@H](C)CO)C[C@@H]2C)cc1`, the cytotoxicity call in the assay on HSkMC and with HepG2 was “inactive” in each case. Further, in the assay on S. aureus RN4220, the growth inhibition call is “inactive”.

As for `Cc1ccc(NC2C(=O)NC(=O)N2N)cc1` (centres undefined), the cytotoxicity call with HSkMC and with HepG2 was “inactive” each time. In the assay with S. aureus RN4220, the growth inhibition call is “inactive”.

Turning to `C[C@@H]1CCCCO[C@@H](CN(C)Cc2ccccc2)[C@@H](C)CN([C@@H](C)CO)C(=O)c2cc(NC(=O)c3ccccc3)ccc2O1`, the cytotoxicity call in the assay on HSkMC and with HepG2 was “inactive” each time. In the assay on S. aureus RN4220, the growth inhibition call is “inactive”.

Consider `Cc1noc(C)c1NC(=O)Nc1ccc2c(c1)C(=O)N([C@H](C)CO)C[C@H](C)[C@@H](CN(C)S(=O)(=O)c1cccs1)OCCCC[C@H](C)O2`, for which the cytotoxicity call in the assay on HSkMC and with HepG2 was “inactive” in each case. Moreover, in the assay with S. aureus RN4220, the growth inhibition call is “inactive”.

Consider `C[C@H]1CCCCO[C@H](CN(C)C(=O)c2ccccc2)[C@@H](C)CN([C@@H](C)CO)C(=O)c2cc(NC(=O)Nc3ccccc3)ccc2O1`, for which the cytotoxicity call in the assay with HSkMC and in the assay on HepG2 was “inactive” each time. Besides, the growth inhibition call in the assay on S. aureus RN4220 is “inactive”.

Consider `C[C@@H]1CN([C@H](C)CO)C(=O)Cc2cc(NC(=O)Cc3ccccc3)ccc2O[C@H]1CN(C)S(=O)(=O)c1ccc(F)cc1`, for which the cytotoxicity call in the assay with HSkMC and in the assay on HepG2 was “inactive” each time. In addition, the growth inhibition call in the assay with S. aureus RN4220 is “inactive”.

On to `C[C@H]1CN([C@@H](C)CO)C(=O)Cc2cc(NS(=O)(=O)c3ccccc3)ccc2O[C@H]1CN(C)Cc1ccc(C(=O)O)cc1`, for which the cytotoxicity call in the assay with HSkMC and with HepG2 was “inactive” each time. For the same compound, the growth inhibition call with S. aureus RN4220 is “inactive”.

For `COc1ccccc1C#Cc1ccc2c(c1)O[C@H](CN(C)Cc1cncnc1)[C@H](C)CN([C@@H](C)CO)S2(=O)=O`, the cytotoxicity call with HSkMC and with HepG2 was “inactive” in each case. Moreover, the growth inhibition call in the assay with S. aureus RN4220 was “inactive”.

Turning to `Cc1cccc(NC(=O)C(C)C)c1`, the cytotoxicity call with HSkMC and in the assay on HepG2 was “inactive” throughout. Further, the growth inhibition call with S. aureus RN4220 was “inactive”.

For `C[C@H](CO)N1C[C@H](C)[C@@H](CN(C)S(=O)(=O)c2cccs2)Oc2c(NC(=O)Nc3cccc4ccccc34)cccc2C1=O`, the cytotoxicity call with HSkMC and in the assay on HepG2 was “inactive” throughout. Moreover, the growth inhibition call with S. aureus RN4220 is “inactive”.

Regarding `C[C@@H]1CN([C@@H](C)CO)C(=O)c2cc(NS(=O)(=O)c3cn(C)cn3)ccc2O[C@@H]1CN(C)C(=O)NC1CCCCC1`, the cytotoxicity call in the assay on HSkMC and with HepG2 was “inactive” throughout. In the assay on S. aureus RN4220, the growth inhibition call is “inactive”.

With `Cn1c(=O)c2c(ncn2CCCN)n(C)c1=O`, the cytotoxicity call in the assay with HSkMC and in the assay on HepG2 was “inactive” throughout. Besides, in the assay on S. aureus RN4220, the growth inhibition call is “inactive”.

For `O=NN(CCCl)C(=O)NC1CCCCC1`, the cytotoxicity call with HSkMC and in the assay with HepG2 was “inactive” in each case. In addition, in the assay with S. aureus RN4220, the growth inhibition call was “inactive”.

For `Cn1c(=O)c2c(nc(S(C)(=O)=O)n2C)n(C)c1=O`, in the assay on HSkMC, the cytotoxicity call is “inactive”. The cytotoxicity call with HepG2 was “active”. Moreover, the growth inhibition call with S. aureus RN4220 is “inactive”.

With `COc1cccc(NC(=O)N[C@H]2C=C[C@@H](CC(=O)N3CCN(C)CC3)O[C@H]2CO)c1`, the cytotoxicity call in the assay on HSkMC (human skeletal muscle cells) and in the assay with HepG2 was “inactive” throughout. Moreover, in the assay on S. aureus RN4220, the growth inhibition call is “inactive”.
